Laboratory results from PubChem BioAssay AID686979 (National Center for Advancing Translational Sciences (NCATS), 2013).
Screen size: about 420,000 compounds; about 50,000 (12%) were called active. The inconclusive results got no clear call from the source; some entries with a clear call stand among them for comparison. Calls come from the whole dose curve; as a rule, active = well fitted inhibition curve with a large enough effect; inconclusive = small, poorly fitted or top-dose-only effect; inactive = flat fitted curve, though single readings scatter. Potencies of inconclusive entries are left out as doubtful fits.
Potency is the fitted concentration of half-maximal effect; tags give direction and shape of the fitted curve.

Assay: qHTS for Inhibitors of human tyrosyl-DNA phosphodiesterase 1 (TDP1): qHTS in cells in presence of CPT; note: nearly all actives have a fitted effect of over 55% in size
Conditions: chicken DT40 Tdp1-/-;hTDP1 cells + 20 nM CPT, ATP luminescence, 48 h; series mostly up to 46.2 µM
Outline: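 Cell growth measured by CellTiter-Glo luminescence after a minimum 48 h, 37 C compound exposure with 20 nM CPT in Tdp1-knockout DT40 cells stably expressing hTDP1, seeded 400/well; qHTS titration format.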
With `CCN(CC(=O)NC(=O)NCc1ccccc1)CC(=O)Nc1cc(Cl)ccc1C` the Potency was inconclusive [inhibitor, partial curve]. In the case of `CCCCc1ccc(NC(=O)NCc2ccccn2)cc1`, the Potency is reported as inconclusive [inhibitor, full curve, poor fit]. With `CCOc1cc(C(=O)Nc2ccc(-c3nc4ccccc4s3)cc2Cl)cc(OCC)c1OCC` the Potency was inconclusive [inhibitor, partial curve]. For `COc1ccc(/C=N/Nc2cc(C)nc3c(C)cccc23)cc1`, the Potency was inconclusive [inhibitor, single point]. With `CCOC(=O)Cc1csc(SCC(=O)Nc2cc(Cl)ccc2Oc2ccccc2)n1` the Potency was inconclusive [inhibitor, single point]. For `Cc1ccccc1N=Cc1c(O)n(-c2nccs2)c(=O)c2ccccc12`, the Potency was inconclusive [inhibitor, single point]. In the case of `C#CCOCCOCCOCCNc1nc(N2CCN(C(=O)CCCCCCCCCCNC(=O)Cn3cc(C[C@@H](C)O)nn3)CC2)nc(N2CCN(C(=O)CCCCCCCCCCNC(=O)[C@H](CCCCN)n3cc(C[C@@H](C)CC)nn3)CC2)n1`, the Potency is reported as active: 16.4 µM. With `COCc1c(C(=O)N2CCN(c3ncccn3)CC2)oc2ccccc12` the Potency was active: 14.6 µM. With `COc1ccc(/C=N/NC(=O)c2ccncc2)cc1CN1CCCc2ccccc21` the Potency was “inactive”. In the case of `COc1ccccc1NC(=O)Cn1nc(-c2ccc(C)cc2)c2c(c1=O)CCCC2`, the Potency is reported as inconclusive [inhibitor, single point]. In the case of `O=C(Nc1ccc(Br)cc1)C(Cc1ccccc1)NS(=O)(=O)c1cccc2nsnc12` (stereo unspecified), the Potency is reported as “inactive”. With `Cn1cccc1C(=O)N1CCc2ccccc2C1` the Potency was “inactive”. For `COc1cccc(NS(=O)(=O)c2ccc3[nH]cc(C(=O)NCCC(C)C)c(=O)c3c2)c1`, the Potency was active: 10.3 µM. With `CCOC(=O)c1ccc(NC(=O)COc2cc3oc(=O)c(CC(C)O)c(C)c3cc2Cl)cc1` (stereo unspecified) the Potency was “inactive”. For `CC1CCC(NC(=O)C2c3ccccc3C(=O)N2Cc2cccs2)CC1` (stereo unspecified), the Potency was inconclusive [inhibitor, full curve, poor fit]. With `O=C(CN1C(=O)CCSc2ccccc21)Nc1ccccc1` the Potency was inconclusive [inhibitor, partial curve]. For `Fc1ccc(-n2ncc3c(NCCC4=CCCCC4)ncnc32)cc1`, the Potency was inconclusive [inhibitor, partial curve, poor fit]. With `O=C(CCN1C(=O)/C(=C\c2ccc(F)cc2)SC1=S)Nc1ccccc1` the Potency was “inactive”. In the case of `CCC(=O)OCc1cc(=O)oc2ccc3ccccc3c12`, the Potency is reported as “inactive”. For `Cc1ccc(Cc2nnc3n(-c4cccc(C)c4)nc(C(=O)c4ccccc4)n3c2=O)cc1`, the Potency was inconclusive [inhibitor, single point]. With `CC(=O)C1=C(C)NC2=C(C(=O)CC(C)(C)C2)C1C` (stereo unspecified) the Potency was inconclusive [inhibitor, partial curve]. For `CN(C(=O)c1ccc(NC(=O)Cc2cccc([N+](=O)[O-])c2)cc1)C1CCCC1`, the Potency was inconclusive [inhibitor, single point]. In the case of `COc1ccccc1-c1nc(-c2ccccn2)no1`, the Potency is reported as active: 13 µM. With `Cc1nn(C)c(C)c1N1C(=O)c2cccc3c(Br)ccc(c23)C1=O` the Potency was active: 18.4 µM. With `O=C(Nc1ccc(N2CCOCC2)c2nonc12)C1CCCC1` the Potency was active: 18.4 µM. With `O=C(NCc1ccco1)c1cccc(C(F)(F)F)c1` the Potency was inconclusive [inhibitor, single point]. With `CC(=O)Nc1ccc(-c2ccnc3c2CC(C)(C(=O)Nc2ccccc2)O3)cc1` (stereo unspecified) the Potency was active: 20.6 µM. For `C1CCN=C(Nc2nc3c(s2)CCCC3)CC1`, the Potency was inconclusive [inhibitor, partial curve, poor fit]. In the case of `c1ccc(-c2nc3ccccc3c3nc4ccccc4n23)cc1`, the Potency is reported as “inactive”. In the case of `Cc1ccc2c(c1)CCCN2C(=O)c1cccs1`, the Potency is reported as “inactive”. With `Cc1ccc(C)c(OCc2cc(C(=O)NC(c3ccccn3)C(F)(F)F)no2)c1` (stereo unspecified) the Potency was inconclusive [inhibitor, single point]. With `O=C(COc1ccc(F)cc1)NCCN1CCCC1` the Potency was “inactive”. With `CC(C)(C)c1ccc(C(=O)NCC(c2cccs2)S(=O)(=O)c2cccs2)cc1` (stereo unspecified) the Potency was inconclusive [inhibitor, single point]. For `Cc1ccc(NC(=O)Nc2ccc3c(c2)N(C)C(=O)CS3)cc1C`, the Potency was inconclusive [inhibitor, single point]. For `Cc1ccccc1-n1nc2c(c1NC(=O)c1cc3ccccc3o1)CS(=O)(=O)C2`, the Potency was “inactive”. For `CCC(C)n1c(SC(C)C#N)nc2ccccc2c1=O` (stereo unspecified), the Potency was inconclusive [inhibitor, single point]. With `CN1CCN(c2ccc(-c3cccc(NC(=O)COc4ccccc4)c3)nn2)CC1` the Potency was inconclusive [inhibitor, single point]. With `O=[N+]([O-])c1cccc2c(N3CCCC3)ccnc12` the Potency was active: 8.2 µM. In the case of `COCCSc1ccccc1C(=O)Nc1ccc(Cl)cn1`, the Potency is reported as inconclusive [inhibitor, partial curve]. For `O=C1N=C(N2CCN(c3ccccc3)CC2)S/C1=C/c1cccs1`, the Potency was “inactive”. With `Cc1nc(N)sc1C(=O)Nc1ccccc1` the Potency was inconclusive [inhibitor, partial curve, poor fit]. In the case of `COc1cc(Cl)c(CN2CCCC(CO)(Cc3cccc(Cl)c3)C2)cc1OC` (stereo unspecified), the Potency is reported as active: 18.4 µM. With `Cc1ccccc1CN1CCC(n2nccc2NC(=O)CCCc2ccccc2)CC1` the Potency was inconclusive [inhibitor, single point]. With `S=C(NCc1cccnc1)Nc1ccc(Oc2ccc(Cl)cc2)cc1` the Potency was inconclusive [inhibitor, single point]. In the case of `CC(C)c1ccc2oc3nc(N)c(C(=O)O)cc3c(=O)c2c1`, the Potency is reported as “inactive”. For `Cc1ccccc1NC(=O)CNc1ccccc1C(=O)NCc1ccco1`, the Potency was inconclusive [inhibitor, single point]. With `CCN(CC)c1nc(-c2ccccc2)nc2c1sc(=S)n2CC` the Potency was “inactive”. With `Cc1cccc(CSCc2ccc(C(=O)NCCc3ccccc3)o2)c1` the Potency was inconclusive [inhibitor, single point]. In the case of `Cc1c(N=Cc2cccnc2)c(=O)n(-c2ccccc2)n1C`, the Potency is reported as “inactive”. With `Cc1cc(Cl)ccc1C(O)c1ncc(-c2ccc(C(F)(F)F)cc2)[nH]1` (stereo unspecified) the Potency was inconclusive [inhibitor, single point]. For `COc1cccc(-c2nn(C)c3sc(C(=O)NCc4ccco4)cc23)c1`, the Potency was active: 20.6 µM. With `CC(C)CN1CCC1(C)C(=O)Nc1cc(-c2ccccc2)nn1C` (stereo unspecified) the Potency was inconclusive [inhibitor, single point]. In the case of `Cc1cc(C)c2c(CC(=O)Nc3ccc(S(=O)(=O)N4CCCCC4)cc3)coc2c1`, the Potency is reported as active: 20.6 µM. In the case of `CCc1ccc(NC(=O)N(CCCN2CCOCC2)C(C)c2cc3cccc(OC)c3o2)cc1` (stereo unspecified), the Potency is reported as inconclusive [inhibitor, single point]. For `COc1ccccc1CCNC(=O)Cc1c(C)c2cc3c(C)coc3cc2oc1=O`, the Potency was inconclusive [inhibitor, single point]. For `O=[N+]([O-])c1ccc2ncnc(Nc3ccc4c(c3)OCCO4)c2c1`, the Potency was inconclusive [inhibitor, partial curve]. With `O=C(Nc1cc([N+](=O)[O-])c2[nH]c(=O)c3ccccc3c2c1)C(F)(F)F` the Potency was active: 0.291 µM. In the case of `CSCc1ccc(C(=O)Nc2cc(C)cc(C)c2)cc1`, the Potency is reported as inconclusive [inhibitor, single point]. In the case of `COCCCn1c(SCC(=O)NC(C)C)nnc1-c1ccccc1`, the Potency is reported as inconclusive [inhibitor, single point]. In the case of `CC(=O)c1cccc(OCC(=O)OCC(=O)Nc2cc(S(=O)(=O)N3CCCCC3)ccc2C)c1`, the Potency is reported as “inactive”. In the case of `O=C(CSc1ccc(Br)cc1)Nc1cccc(S(=O)(=O)N2CCOCC2)c1`, the Potency is reported as inconclusive [inhibitor, single point]. In the case of `Cc1ccc(C)c(NC(=O)c2ccc(S(=O)(=O)C(F)F)cc2)c1`, the Potency is reported as “inactive”. For `Cc1ccc(/C([O-])=C(/C(=S)Nc2ccc(SC(F)F)cc2)[n+]2ccccc2)cc1[N+](=O)[O-]`, the Potency was inconclusive [inhibitor, single point]. For `CN(Cc1c(C(=O)N(C)Cc2ccccc2)nc2ccccn12)CC1Cc2ccccc2O1` (stereo unspecified), the Potency was active: 18.4 µM. With `Oc1c(C=Nc2cccc3nsnc23)ccc2ccccc12` the Potency was inconclusive [inhibitor, single point]. For `CC(C)(C)c1ccc(S(=O)(=O)NCc2ccc(C(=O)NCC3CCCO3)cc2)cc1` (stereo unspecified), the Potency was inconclusive [inhibitor, single point]. With `Nc1c(-c2nc(-c3ccccc3)no2)nnn1CC(=O)Nc1cccc(F)c1` the Potency was inconclusive [inhibitor, partial curve]. For `CS(=O)(=O)n1nc(-c2ccc(Cl)cc2)nc1SCc1ccccc1`, the Potency was inconclusive [inhibitor, single point]. For `Cc1cc(C)c(C(N)=O)c(SCC(=O)c2cc(C)n(-c3cc(C)on3)c2C)n1`, the Potency was active: 1.16 µM. For `COc1ccc(CC(=O)Nc2ccc(S(=O)(=O)NCC3CCCO3)cc2)cc1` (stereo unspecified), the Potency was inconclusive [inhibitor, partial curve]. With `CCN(CC)CCN(C(=O)c1ccco1)c1nc2cc(C)cc(C)c2s1` the Potency was inconclusive [inhibitor, single point].
